Measured values: patent US20220242943A1

Molecular target: Human PDGF-AB/BB (3:1)
Assay: cell-based or functional assay

(%) Inhibition, calcium flux in HLF cells, 1 nM ligand, 60 Second Timepoint: 100%
(%) Inhibition, calcium flux in HLF cells, 1 nM ligand, Full Time Course: 87%
(%) Inhibition, calcium flux in PASM cells, 1 nM ligand, 60 Second Timepoint: 100%
(%) Inhibition, calcium flux in PASM cells, 1 nM ligand, Full Time Course: 72%
IC50, calcium flux (FLIPR) in HLF cells, 1 nM ligand, 60 Second Timepoint: 0.54 nM
IC50, calcium flux (FLIPR) in HLF cells, 1 nM ligand, Full Time Course: 5.5 nM
IC50, calcium flux (FLIPR) in PASM cells, 1 nM ligand, 60 Second Timepoint: 4.5 nM
IC50, calcium flux (FLIPR) in PASM cells, 1 nM ligand, Full Time Course: 330 nM
B1: H4H13132P (antibody, human IgG4 S228P, kappa)
heavy: QVQLVQSGAEVKKPGSSVKVSCKASGGTFSSYAISWVRQAPGQGLEWMGGIIPIFGTANYAQKFQGRVTITTDESTSTAYMELSSLRSEDTAVYYCAREGYGDYYFGMDVWGQGTTVTVSSASTKGPSVFPLAPCSRSTSESTAALGCLVKDYFPEPVTVSWNSGALTSGVHTFPAVLQSSGLYSLSSVVTVPSSSLGTKTYTCNVDHKPSNTKVDKRV[human IgG4 Fc with S228P (EU numbers) left out here]
light: [about 100 residues left out here][about 120 residues left out here]
